From the supplement of paper PMC5499739
In all, about 16,000 sequences were measured (“Z-score”: median about -0.37, highest 2% from about 3.1 on). The list shows a part of the results.

System: RBM10 RRM1-ZnF-RRM2 (GST-tagged construct)
Test: RNAcompete 7-mer binding Z-score; higher = stronger binding preference
Outline: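 In 1 ml Hepes pH 7.8 buffer with KCl, NaCl, glycerol, DTT, BSA and glutathione Sepharose beads, GST-tagged RBM10 constructs (20 pmol) were incubated for 30 min at 4°C with 1.5 nmol of a designed pool of 241 399 RNAs up to 41 nt. Four 2-min washes at 4°C followed, and bound RNA was detected by microarray hybridisation. Heptamer motif enrichment was expressed as a one-sided Z-score across probes containing each motif.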

Sequence | RNAcompete 7-mer binding Z-score
UGAUUCC | -0.668
CGAUAAU | -0.256
CGGAAGC | 0.202
CCUGAGA | -0.737
UUGUGUC | -0.624
UGAGGUC | 0.796
CAUCUGC | -0.821
GUCAAUG | 0.294
UCGGGCU | -0.0853
GGUUUCC | 0.253
UACUCCG | -0.788
CGUCUUA | -0.697
CAAUACA | -0.0998
GGCCCUU | -0.93
AGCGUGC | -0.0561
AGUAUAU | -0.351
UAUGCAA | -0.0525
AUUGUAA | -0.384
GGAUGCU | 0.403
ACACAUA | -0.377
CCAAGCA | -0.402
GCUUGGC | -0.191
GCUGUAU | -0.468

Sequence | RNAcompete 7-mer binding Z-score
UAUCCGA | -0.628
CGGCUCC | -0.453
CGGGACA | 1.35
CUUAUAA | -0.825
AGUGACU | -0.0598
UAUGCUU | -0.803
GAACGCG | 0.472
CGAUAAG | 0.538
UAGCAAA | -0.103
AUUAUGU | -0.402
CCGGUAU | -0.169
GUCGUAG | 0.257
CUCGCUG | -0.766
UUCACUG | -0.599
GAUUUGC | -0.475
UUUUUAG | -0.584
GCGUCUG | -0.326
AGACUCG | -0.774
ACUCAUC | -0.777
AUUGGCU | -0.275
CAAACCU | -0.763
ACCGUUG | -0.318
UUAGGCC | -0.471

Sequence | RNAcompete 7-mer binding Z-score
UGGGCGU | 2.41
GAUGGCA | 1.5
GGAUAAA | 1.45
AAUUGCA | -0.282
UUAGGGG | 2.07
CGGCGCA | 0.304
ACCUAUU | -0.883
GAUGUGA | 0.727
GGGUGGU | 4.19
UCGGCAG | 0.024
CCCCCCC | 0.0859
UAACAGU | 0.0349
AUUAGUA | -0.0306
UACCGUG | -0.00877
CGGUCUG | -0.318
GUGUACC | -0.173
UACACGC | -0.57
GUGUAUG | 0.964
UUGGGUG | 3.43
CAAGUCG | -0.431
CGAGGGC | 1.41
CGAAUUU | -0.814
UUAACAC | -0.49

Sequence | RNAcompete 7-mer binding Z-score
ACCAUCG | -0.65
GCAUCUG | -0.562
CAAAACU | -0.617
GAUUCAG | 0.312
CAGCGCG | -0.3
AAUUCGU | -0.468
UAAUCAU | -0.424
GGAAGUC | 0.822
CCAGUGU | -0.602
UCCCCAU | -0.73
GUCCACU | -0.653
AAGCCGU | -0.632
UAAGGCU | 0.224
GCCCCUG | -0.406
UGGCUCG | -0.18
AGUAGUU | 0.0677
ACCACAU | -0.573
GGAGGAU | 2.27
GCCCAUC | -0.865
UCUUUCG | -0.766
CCGUAGU | -0.468
UACGUUA | -0.486
CCCAACU | -0.861

Sequence | RNAcompete 7-mer binding Z-score
UACGGGA | 1.9
CAUCGAC | -0.723
GCUUCUG | -0.81
CUGGGUA | 1.78
CGGCCUU | -0.683
CAUACUA | -0.726
AGCUUCC | -0.719
UUGCGUU | -0.562
GCUCAUC | -0.737
UAACACA | -0.00877
AUCGUCA | -0.548
CGCUAGC | -0.675
GGGCCUA | 0.246
GCGGCGC | 0.734
GGCCCAG | -0.26
AACGAGG | 2.14
GUGACAA | 0.796
GGUUGAG | 2.85
GGCAGAA | 1.41
GACACAU | -0.413
GUAAACC | -0.0197
GACGUCU | -0.672
UGACGGU | 0.993

Sequence | RNAcompete 7-mer binding Z-score
UACUACU | -0.821
CUAGAAG | 0.0386
GAUGGCU | 0.476
UUCGUGG | 0.814
UCGUUUA | -0.526
CUCUUAC | -0.999
CGGAGAG | 0.975
CCCUCAC | -0.748
UCUCGCU | -0.919
CAACGAU | -0.136
GCCUACC | -0.726
UGACAUC | -0.464
UUAAACG | -0.442
ACGAAAU | -0.191
AAACCAA | -0.326
GAUUCUA | -0.65
UCACUUU | -0.923
AAUUCCA | -0.508
GAAGAUG | 1.38
ACUGUCU | -0.945
UCCUAGU | -0.704
UCAGACA | -0.398
GCGGGCG | 2.17

Sequence | RNAcompete 7-mer binding Z-score
CAGUAAC | -0.078
UAUCAAC | -0.504
GGGCGUU | 0.949
UUUGCCC | -0.755
AUAGUAU | -0.0343
AGCUACA | -0.103
CAAAAUU | -0.49
UGGUCGU | 0.337
CCACCUC | -0.69
UCACUCA | -0.89
GUGCGGU | 1.41
GCACGAC | 0.0058
CUUGGGC | 0.385
GUCACCC | -0.613
GCUGAAA | -0.187
AGCGUAU | 0.0349
UUAAAUU | -0.664
AAGGUAA | 3.65
UCUGAAC | -0.839
ACGUCUG | -0.635
UCUCGGU | -0.449
GAUACGU | 0.192
CCUAAGU | -0.584

Sequence | RNAcompete 7-mer binding Z-score
AGUCACA | -0.0889
AAAGCCA | -0.337
UCAUGCG | -0.289
UCGAUCG | -0.551
CGACGAA | -0.504
GUGGUGU | 1.58
UCUUGCG | -0.664
GUCACAA | -0.209
GACACCA | -0.289
UUUCUUU | -0.697
UAGCAGC | -0.256
UAGUGGG | 3
GGGCAGU | 2.31
UGCAAAU | -0.38
CGCGUUC | -0.613
GCGCUCG | -0.329
CCCAUCA | -0.803
UGUAAGU | -0.144
CUGCAGA | -0.449
UCUCUGA | -0.781
CUCGAAG | -0.318
CGAUGCG | 0.385
